Test results as given in the RNAGym collection of RNA variant scans (doi:10.7554/elife.90254).
The source gives no read counts; variants with many changes may rest on few reads.

B1: LINE1-full (parent)
chain: UACGUAGGUGGUUUUCCCCUGAUAGUGCUAAGGGGGCCUGGAAGUUUGGACUGGGCAGAGCUCAACACAGCGUGGCAAAGUGGCUGUGGCUAGACUGCCUCUCUGGAUUCCUCGUCACUCAGCAGGGCAUCUCUGAGAGAAAUGCC

Variants of: B1
Test: self-cleavage, relative activity (ratio to wild type); higher = more cleavage; in vitro, sequencing; the parent is a self-cleaving ribozyme
Work on UACGUAGGUGGUUUUCCCCUGAUAGUGCUAAGGGGGCCUGGAAGUUUGGACUGGGCAGAGCUCACCACAGUGUGGCAAAGUGGCUGCGGCUAGACUGCCUCUCUGGAUUCCUCGUCACUCAGCAGGGCAUCUCUGAGAGAAAUGCC [A65C C71U U87C] yielded a self-cleavage of 0. Variant UACGUAGGUGGUUUUCCCCUGAUAGUGCUAAGGGGGCCUGGAAGUUUGGACUGGGCAGAGCUCAACACAGCGUGGCAAAGUGGCUGUGGCUAGACUGCCUCUCUGGACUCCUCGGCACUCAGCAGGGCAUCCCUGAGAGAAAUGCC [U108C U115G U132C] has a self-cleavage of 0.4. In the case of UACGUAGGUGGUUUUCCCCUGUUAGUGCUAAGGGGGCCUGGAAGCUUGGACUGGGCAGAGCUCAACACGGCGUGGCAAAGUGGCUGUGGCUAGACUGCCUCUCUGGAUUCCUCGUCACUCAGCAGGGCAUCACUGAGAGAAGUGCC [A22U U45C A69G U132A A142G], the self-cleavage is reported as 0.84. Work on UACGUAGGUGGCUUUCCCCUGAUAGUGCUAAGGGGGCCUGGAAGUUUGGACUGGGCAGAGCUCAACACAGCGUGGCAAAGUGGCUGUGGCUAGACUGCUUCUCCGGAUUCCUCGUCACUCAGCAGGGCAUCUCUGAGAGAAAUGCC [U12C C99U U104C] yielded a self-cleavage of 2.77. For UACGUAGGUGGUUUUCCCCUGAUAGUGCUAAGGGGGCCUGGAAGUUUGGACUGGGCAGAGCUCAACACAGCGAGGCAAAGUGGCUGUGGCUAGACCGCCUCUCUGGAUUCCUCGUCACUCAGCAGGGCAUCCCUGAGAGAAAUGCC [U73A U96C U132C], the self-cleavage was 0.06. For UACGUAGGUGGUUUUCCCCUGGUAGUGCUAAGGGGGCCAGGAAGUUUGGACUGGGCAGAGCUCAACACAGCGUGGCAAAGUGGCUGUGGCUAGACUGCCUCUCUGGAUCCCUCGUCACUCAGCAGGGCAUCUCUGAGAGAAAUGCC [A22G U39A U109C], the self-cleavage was 1.65. In the case of UACGUAGGUGGUCUUCCCCUGAUAGUGCUAAGGGGGACUGGAGGCUUGGACUGGGCAGAGCUCAACACAGCGUGGCAAAGUGGCUGUGGCUAGACUGCCUCUCUGGAUUCCUCGUCACUCAGCAGGGCAUCUCUGAGAGAAAUGCC [U13C C37A A43G U45C], the self-cleavage is reported as 0.86. UACGUAGGUGGAUUUCCCCUGAUAGUGCUAAGGGGGCGUGGAAGUUUGGACUGGGCAGAGCCCAACACAGCGUGGCAAAGUGGCUGUGGCUAGACUGCCUCUCUGGUUUCCUCGUCACUCAGCAGGGCAUCUCUGAGAGAAAUGCC [U12A C38G U62C A107U] gave a self-cleavage of 0.18. With UACGCAGGUGGUUCUCCCCUGAUAGUGCUAAGGGGGCCUGGGAGUUUGGACUGGGCAGAGCUCAACACAGCGUGGCAAAGUGGCUGUGGCUAGACUGCCUCUCUGGAUUCCUCGUCACUCAGCAGGGCAUCUCUGAGAGAAAUGCC [U5C U14C A42G] the self-cleavage was 1. In the case of UACGUAGGUGGUUUUCCCCUGAUAGUGCUAAGGGGGCCUGGAAGUUUGGACUGGGCCGAGCUCAACACAGCGUGGCAAAGUGGCUGUGGCUAGACUGCCUCUCUGGAAUCCUCGUCACUCAGCAGGGCUUCUCUGAGAGAAAUGCC [A57C U108A A129U], the self-cleavage is reported as 0.11. Work on UACGUAGGUGGUUUUCCCCUGAUAGUGCUAAGGGGGCCUGGUAGUUUGGACUGGGCGGAGCUCAACACAGCGUGGCAUAGUGGCCGUGGCUAGACUGCCUCUCUGGAUUCCUCGUCACUCAGCAGGGCAUCUCUGAGAGAAAUGCC [A42U A57G A78U U85C] yielded a self-cleavage of 0.1. UACGUAGGUGGUUUUCCCCUGAUAGUGCUAUGGGGGCCUGGAAGUUUGGACUGGGCGGAGCUCUACACAGCGUGGCAAAGUGGCUGUGGCUAGACUGCCUCUCUGGAUUCCUCGUCACUCAGCAGGGCAUCUCUGAGAGAAGUGCC [A31U A57G A64U A142G] gave a self-cleavage of 0.46. With UACGUAGGUGGUUUUCCCCUGAUAGUGCUAAGGGGGCCUGGAAGUUUGGACUGGGCGGAGCUCAACACAGCGUGGCAAAGUGGCUGUGGCUAGACUGCCUCUCUGGAUUCCUCGCCACUCAGCAGGGCAUCUCUGAGAGAAGUGCC [A57G U115C A142G] the self-cleavage was 1.78. With UACGUAGGUGGUCUUCCCCUGAUAGUGCAAAGGGGGCCUGGAAGUUUGGACUGGGCAGAGCUCAACACAGCGUGGCACAGUGGCUGUGGCUAGACUGCCUCUCUGGAUUCCUCGUCACUCAGCAGGGCAUCUCUGAGAGAAAUGCC [U13C U29A A78C] the self-cleavage was 1.07. With UACGUAGGUGGUUUUCCCCUGAUAGUGCUAAGGGGGCCUGGAAGUUUGGACAGGGCAGAGCUCAACUCAGCGUGGCAAGGCGGCUGUGGCUAGACUGCCUCUCUGGAUUCCUCGUCACUCAGCAGGACAUCUCCGAGAGAAAUGCC [U52A A67U A79G U81C G127A U134C] the self-cleavage was 0.18. With UACGUAGGUGGUUUUCCCCUGACAGUGCUAAGGGGGCCUGGGAGUUUGGACUGGGCAGAGCUCAACACAGCGUGGCAAAGUGGCUGUGGCUAGACUGCCUCUCUGAAUUCCUCGUCACUCAGCAGGGCAUCUCUGAGAGAAAUGCC [U23C A42G G106A] the self-cleavage was 1.67. UACGAAGGUGGUUUUCCCCUGAUAGUGCUAAGGGGGCCUGGAAGUUUGGACUGGGCAGAGCCCAACACAGCGUGGCAAAGUGGCUGUGGCUAGACUGCUUCUCUGGAUUCCUCGUCACUCAGCAGGGCAUCUCUGAGAGAAAUGCC [U5A U62C C99U] showed a self-cleavage of 0.09. For UACGUAGGUGGUUUCCCCCUGAUAGUGCUAAGGGGGCCAGGAAGUUUGGACUGGGCAGAGCUCAACACAGCGCGGCAAAGUGGCUGUGGCUAGAAUGCCUCUCUGGAUUCCUCGUCACUCAGCAGGGCAUCUCUGAGAGAAAUGCC [U15C U39A U73C C95A], the self-cleavage was 0.26. For UACGUAGGUGGUUCUCCCCUGAUAGUGCUAAGGGGGCCUGGAAGUUUGGACUGGGCAGAGCUCAACACAGCGUGGCAAAGUGGCUGUGGCUAGACUGCCCCUCUGGAUUCCUCGUCACUCAGCAGGGCAUUUCUGAGAGAAGUGCC [U14C U100C C131U A142G], the self-cleavage was 1.47. Variant UACGUAGGUGGGUUUCCCCCGAUAGUGCUAAGGGGGCCUGGAAGUUUGGACUGGGCAGAGCUCAACGCAGCGUAGCAAAGUGGCUGUGGCUAGACUGCCUCUCUGGAUUCCUCGUCACUCAGCAGGGCAUCUCUGAGAGAAAUGCC [U12G U20C A67G G74A] has a self-cleavage of 0.74. For UACGUAGGUGGUUUGCCCCUGAUAGUGCUAAGGGGGCCUGGAAGUUUGGACUGGGCAGAGCUCAACACAGCGUGGCAAAGUGGCUGUGGCUAGACUGCCUCUCUGGAUUCCUCGUCACUCAGCAGGGCGUCUCUGAGAGAAAUGCU [U15G A129G C146U], the self-cleavage was 1.26. UACGUAGGUGGUUCUCCCCUGAUAGUGCUAAGGGGGCCUGGAAGAUUGAACUGGGCAGAGCUCAACACAGCGUGGCAAAGUGGCUGUGGCUAGAAUGCCUCUCUGGAUUCCUCGUCACUCAGCAGGGCAUCUCUGAGAGAAAUGCC [U14C U45A G49A C95A] showed a self-cleavage of 0.06. Work on UACGUAGGUGGUUUUCCCCUGACAGUGCUAAGGGGGCCUGGAAGUUUGGACUGGGCAGAGCACAACACAGCGUGUCAAAGUGGCUGUGGCUAGACUGCCUCUCUGGAUUCCCCGUCACUCAGCAGGGCAUCUCUGAGAGAAAUGCC [U23C U62A G75U U112C] yielded a self-cleavage of 0.02. With UACGUAGGUGGUCUUCCCCUGAUAGUGCUAAGGGGGCCUGGAAGUUUGGACUGGGCAGAGCUCUACACAGCGUGGCAAAGUGGCUGUGGCUAGACUGCCUCUCUGGAUUUCUCGUCACUCAGCAGGGCAUCUCUGAGAGAAAUGCC [U13C A64U C110U] the self-cleavage was 0.42. For UACGUAGGUGGUUUUCCCCUGAUGGUGCUAAGGGGGCCUGGAAGUUAGGACUGGGCAGAGCUCAACACAGCGUGGCAAAGUGGCUGUGGCUAGACUGCCUCUCUGGAUUCCUCGUCACUCAGCAGGGCAUCUCUGAGAGAGAUGCC [A24G U47A A141G], the self-cleavage was 0. Work on UACGUAGGUGGUUUUCCCCUGAUAGUGCUAAGGGGGCCUGGAAGUUUGGACUGGGCAGAGCUCAACACAGCGUGGCAGAGUGGCUGUGGCUAUACUGCCUCUCUGGAUUCCUCGUCACUCAGCAGGGCAUUUCUGAGAGAAAUGCC [A78G G93U C131U] yielded a self-cleavage of 0.03. For UACGUAGGUGGUUUUCCCCUGAAAGUGCUAAGGGGGCCUGGAAGUAUGGACUGGGCGGAGCUCAACACAGCGUGGCAAAGUGGCUGUGGCUAGACUGCCCCUCUGGAUUCCUCGUCACUCAGCAGGGCAUCUCUGAGAGAAAUGCC [U23A U46A A57G U100C], the self-cleavage was 1.02. Variant UACGUAGGUGGUUUUCCCCUGAUAGUGAUAAGGGGGCCUGGAAGUUUGGACUGCGCAGAGCUCAACACAGCGUGGCAAAGUGGCUGUGGCUAGACUGCCCCUCUGGAUUCCUCGUCACUCAGCAGGGCAUCUCUGAGAGAAAUGCC [C28A G54C U100C] has a self-cleavage of 0.07. Work on UACGUAGGUGGUUUACCCCUGGUAGUGCUAAGGGGGCCUGGAAGUUUGGACUGGGCAGAGCUCAACACAACGUGGCAGAGUGGCUGUGGCUAGACUGCCUCUCUGGAUUCCUCGUCACUCAGCAGGGCAUCUCUGAGAGAAAUGCC [U15A A22G G70A A78G] yielded a self-cleavage of 0.15. Variant UACGUAGGUGGUUUUCCCCUGAUAGUGCUAAGGGGCCCUGUAAGUUCGGACUGGGCAGAGCUCAACACAGCGUGGCAAAGUGGCUGUGGCUAGACUGCCUCUCUGGAUUCCUCGUCACCCAGCAGGGCAUCUCUGAGAGAAAUGCC [G36C G41U U47C U119C] has a self-cleavage of 0.84. Work on UACGUAGGUGGUUCUCCCCUGAUGGUGCUAAGGGGGCCUGGAAGUUUGGACUGGGCAGAGCUCAACACAGCGUGGCAAAGUGGCUGUGGCUAGACUGCCUCUCUGGAUUCCUCGUCACUCAGCAGGGCAUCUCCGAGAGAAAUGCC [U14C A24G U134C] yielded a self-cleavage of 0.71. In the case of UACGUAGGUGGUUUUCCCCUGAUAGUGCUAAGGGGGCCUGGAGGUUUGGACUGGGCAGAGCUCAACACAGCGUGGCAAAGUGGCUGUGGCUAGACUGCCUCCCUGGAUUCCUCGUCACUCAGCUGGGCUUCUCUGAGAGAAAUGCC [A43G U102C A124U A129U], the self-cleavage is reported as 0.94. With UACGUAGGUGGUUUUCCCCUGAUAGUGCUAAGGGGGCCUGGAAGUAUGGACUGGGCAGAGCUCAACACAGCGCGGCAAAGUGGCUGUGGCUAGACUGCCCCUCUGGAUUCCUCGUCACUCAGCAGGGCAUCUCUGAGAGAAAUGCC [U46A U73C U100C] the self-cleavage was 2.3. In the case of UACGUAGGUGGUUUUCCCCUGAUAGUGCUAAGGGGGCCUGGAAGUUUGGACUGGGCAGAGCUCAGCACAGCGUGGCAAAGUGGCUGUGGCUAGACUGCCUCUCUGGAUACCUCGUCACUCAGCAGGGCAUCUCUGAGAGAUAUGCC [A65G U109A A141U], the self-cleavage is reported as 0. With UACGUAGGUGGCUCUCCCCUGAUAGUGCUAAGGGGGCCUGGAAGUUUGGACUGGGCAGAGCUCAACACAGCGUGGCAAAGAGGCUGUGGCUAGACUGCCUCCCUGGAUUCCUCGUCACUCAGCAGGGCAUCCCUGAGAGAAAUGCC [U12C U14C U81A U102C U132C] the self-cleavage was 2.56. With UGCGUAGGUGGUUUUCCCCUGAUAGUGCUAAGGGGGCCUGGAAGUUUGGACUGGGCAGAGCUCAACACCGCGUGGCAAAGUGGCUGUGGCUAGACUGCCCCUCUGGAUUCCUCGUCACUCAGCAGGGCAUCCCUGAGAGAAAUGCC [A2G A69C U100C U132C] the self-cleavage was 1.84. With UACGUAGGUGGUUUUCCCCUGAUAGUGCUAAGGGGGCCUGGAAGUCCGGACUGGGCAGAGCUCAACACAGCGUGGCAAAGUGGCUGUGGCUAGACUGCCUCUCUGGAUUCCCCGUCACUCAGCAGGGCAUCUCUGAGAGAAAUGCC [U46C U47C U112C] the self-cleavage was 1.31. With UACGUAGGUGGUUUUCCCCUGAUAGUGCUAAGGGGGCCUGGAAGUUUGGACUGGGCGGAGCUCAACACAGCGUGGCAAAGUGGCUGUGGCUAGACUGCCUCUCUGGACUCCUCGUCUCUCAGCAGGGCAUCUCUGAGAGAAAUGCC [A57G U108C A117U] the self-cleavage was 2.47. For UACGUAGGUGGUUUUCCCCUGAUAGUGCUAAGGGGGCCUGGAAGUUUGGACUGGGCAGAGCUCAACUCAGCGUGGCAAAGUGGCAGUGGCUAGACUGCCUCUCUGUAUUCCUCGUCACUCAGCAGGGCAUCUCUGAGAGAAAUGCC [A67U U85A G106U], the self-cleavage was 0.
